The chains are these.
B1: CPEB3 Ribozyme (parent)
chain: UAACAGGGGGCCACAGCAGAAGCGUUCACGUCGCAGCCCCUGUCAGAUUCUGGUGAAUCUGCGAAUUCUGCUGUAUAUCUC

The source gives no read counts; variants with many changes may rest on few reads.

The values that follow come from the RNAGym collection of RNA variant scans (doi:10.1093/nar/gkz1192).

The series covers variants of B1. As to the kind of experiment: self-cleavage, relative activity (ratio to wild type); higher = more cleavage; in vitro, sequencing. In a few lines: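 For each CPEB3 ribozyme variant, relative activity is its cleaved/total read fraction divided by the unmutated ribozyme's. Barcoded error-prone PCR libraries were transcribed by T7 RNA polymerase (5 hours, 37°C) and held in DNase I for 15 min before an EDTA stop, with cleavage occurring throughout. Template-switching reverse transcription and Illumina sequencing were used to read the RNAs. A 5-read minimum applied, and results are the mean of three batches.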
As to UAACAGGGGGCCAUAGCGGAAGCGUUCACGUCGCAGCCCCUGUCUGAUUCUGGUGAAUCUGCGUAUUCUGCUGUAUAUCUC, the self-cleavage was 0.15.
Take UAACAGGGGGCCAUAGCGGAAGCGUUCACGUCGCAGCCCCUGUCAGAUUCUGGUGAAUCUGCGAACUCUGCUGUAUAUCUC: the self-cleavage turned out to be 0.21.
For the variant UAACAGGGGGCCACCGCAGAAGCGUUCACGUCGCAGCCCCUGUCAGAUUCUGGUGAAUCUGCGCAUUCUGCUGUAUUUCUC, the self-cleavage came out at 0.15.
The value for UAACAGGGGGCCAUAGCAGAAGCGUUCACGUCGCAGCCCCUGUCAGAUCCUGGAGAAUCCGCGAAUUCUGCUGCAUAUCUC was 0.2.
With UAACAGGGGGCCAUAGCAGAAGCGUACACGUCGCAGCCCCUGUCAGAUUCAGGCAAAUCUGCGAAUUCUGCUGGAUAUCUC, the self-cleavage amounted to 0.98.
As to UAACAGGGGGCCAUAGCAGAAGCGUUCACGUCGCAGCCCCUGUCAUAUUCUGGUGAAUCUGCGAAUUCUGCUGCAUAUCUC, the self-cleavage was 0.46.
On to UAACAGGGGGCCAUAGCAGAGGCGUUCACGUCGGAGCCCCUGUCAGAUUCUGGUGGAUCUGCGAGUUCUGCUGUGUAUCUC, for which the self-cleavage came out at 0.06.
The result for UAACAGGGGGCCAUAGCAGAAGCGUUCACAUCGCAGCCCCAGUCAGAUUCUGGUGAAUCUGCGAAUUCUGCUGUAUAUCUC reads 0.08; that for UAACAGGGGGCCAUAGCAGAAGCGUUCACGUCGCAGCCCCUGUCAGAUUCUGGUAAUUCUGCGAAUUCUGCUAUAUAUCUC, 1.08; that for UAACAGGGGGCCAUAGCAGAAGCGUUCACGUCGCAGCCCCUCUCAGACUCUGGUGAGUCUGCGAAUUCUGCUGUAUAUCUC, 0.18.
The result for UAACAGGGGGCCAUAGCAGAAGCGUUCACGUCGCAGCCCCUGUCCGAUUCUGGUGAACCUGCGAAUUCUGCUGUAUACCUC reads 0.11; that for UAACAGGGGGCCAUAGCAGAAGCGUUCACGUCGCAGCCCCUGUCAGAUUCUGGUGAAUCAGCGAAUUCGGCUGUAUAUCUC, 0.35; that for UAACAGGGGGCCAUAGCAGAAGCGUUCACGUCGCAGCCCCUGUCAGAUUCUGGUGAAUCUGCGAAUUCUGCCGUAUGUCUC, 1.31.
For UAACAGGGGGCCACCGCAGUAGCGUUCACGUCGCGGCCCCUGUCAGGUUCUGGUGAAUUUGCGAAUUCUGCUGUAUAUCUC, the self-cleavage is 0.07.
Take UAACAGGGGGCCAUAGCAGAAGCGUUCACGUCGCAGCCCCUGUCAGAUACUGGUGACUCUGCGAGUUCUGCUGUAUAUCUC: the self-cleavage was 0.13.
For UAACAGGGGGCCAUAGCAGAAGCGUUCACGUCGCAGCCCCUGUCAGAUUCUGGUUAAUCUGCGAAUUCUGCUGUAUACCUC, the self-cleavage was determined as 1.24.
Regarding UAACAGGGGGCCAUGGCAGAAGCGUUCACGUCGCAGCCCCUGUCAGAUUCUGGUGAAUCUGCGCAUCCUGCUGUAUAUCUC, the self-cleavage came to 0.25.
Regarding UAACAGGGGGCCACCGCAGAGGCGUUCACGUCGCAGCCCCUGUCAGAUUCUGGUGAAUCUGCGAAUACUGCUGUACAUCUC, the self-cleavage is 0.2.
The result for UAACAGGGGGCCAUAGCAGAAGCAUUCGCGUCGCAGCCCCAGUCAGAUUCUGGUGAAUCUGCGCAUUCUGCUGUAUACCUC reads 0.07; that for UAACAGGGGGCCAUAGCAGUAGCGUUCACGUCGCAGCCCCUGUCAGAUUCUGGUGGAUCUGCGAAUUCUGCUGUAUAUCUC, 0.11.
As to UAACAGGGGGCCACCGCAGAGGCGUUCACGUCGCGGCCCCUGUCAGAUUCCGGUGAAUCUGCGAAUUCCGCUGUAUAUCUC, the self-cleavage is 0.33.
With UAACAGGGGGCCAUAGCAGAAGGGUUCACGUCGCAGCCCCCGUCAGAUUCUGGUGAACCUGCGAAUUCUGCUGUAUAUCUC, the self-cleavage worked out at 0.08.
On to UAACAGGGGGCCACCGCAGAAGCGUUCACGUCGCAGCCCCUGUCAGAUUCUGGUGAAUCUGCGGACUCUGCUGUAUAUCUC, for which the self-cleavage came out at 0.26.
As for UAACAGGGGGCCAUAGCAGUAGCGUUCACGUCGCAGCCCCUGUCAGAUUCUGGAGAAUCUGCGAAUUCUGCUGUAUAUCUC, the self-cleavage worked out at 0.15.
On to UAACAGGGGGCCAUAGCAGAGGCGUUCACGUAGCAGCCCCUGUCAGAUUCUGGUGGAUCCGCGAAAUCUGCUGUAUAUCUC, for which the self-cleavage turned out to be 0.02.
For UAACAGGGGGCCACCGCAGAGGCGUUCACGCCACAGCCCCUGUCAGAUUCUGGUGAAUCUGCGAAUUCUGCUGUACAUCUC, the self-cleavage was determined as 0.03.
As to UAACAGGGGGCCACCGCAGAAGCGUUCACGUUGCAGCCCCUGUCUGAUUCUGGUGAAUCUGCGAAUUCUGCUGUAUAUCUC, the self-cleavage worked out at 0.14.
As for UAACAGGGGGCCAUAGCAGAAGCGUUCACGUCGCAGCCCCUGUCGGAUUCUGGUGAAUCUGCGAAUUCUGCUGCAUAUCUC, the self-cleavage was found to be 1.06.
Regarding UAACAGGGGGCCAUAGCAGAAGCGUUCACGUCGCAGCCCCGGUCAGAUUCUGGUGAAUCUGCGAAUUCUGCUGUAUAUCCC, the self-cleavage came out at 0.23.
For the variant UAACAGGGGGCCACCGCAGUAGCGUUCAUGUUGCAGCCCCUGUCAGAUACUGGUGAAUCUGCGAAUUCUGCUGUAUAUCUC, the self-cleavage turned out to be 0.07.
Turning to UAACAGGGGGCCAUAGCAGAAGCGUUCACGUCGCAGCCCCUGUCAGAUUCUGGCGAAUCUGCGGAUUCUGCUGUAUUUCUC, the self-cleavage is 1.19.
The result for UAACAGGGGGCCAUAGCAGAAGCGUUCACGUCGCAGCCCCUGCCAGAUUCUGGUGAAUCUGCGAAUUCUGCUGCAUACCUC reads 1.13.
For UAACAGGGGGCCAUAGCAGUAGCGUUCACGUCGCAGCCCCUGUCAGAUUCUGGUGAAUCUGUGAAUUCUGCUGUAUAUCUC, the self-cleavage was determined as 0.13.
Turning to UAACAGGGGGCCACCGCAGAAGCGUUCACGUCGCAGCCCCUGUCAGUUUCUGGUGAAUCUGCGAAUUCUGCCGUAUAUCUC, the self-cleavage stood at 0.78.
